Test results: article PMC6400558 (2019)
Read-outs that look alike come from different tables or passages of the source. Results are given in words; binding and its absence hold for the method and conditions named. Binding seen in cells or lysates may run through a third protein. Some entries that bind do so weakly or less than the wild type. For some of these results: Tags and fused reporters may be left off the sequences shown.

Key:
[1] = biological target: T1, MBP-tagged Hook2 Hook+CC1 (N427) WT (human) (UniProt Q96ED9); test: pull-down; MBP-tagged Hook2 N427 (WT or mutants) on amylose beads incubated with whole-cell lysate of HEK293T cells (asynchronous, or harvested in cytokinesis for MKLP1), 4°C, 3 h, 20 mM Hepes pH 7.4, 350 mM NaCl, 1 mM DTT, 2 mM MgCl2, 0.1% Triton X-100, 2 mg/ml BSA; immunoblot; only the target purified
T1 sequence: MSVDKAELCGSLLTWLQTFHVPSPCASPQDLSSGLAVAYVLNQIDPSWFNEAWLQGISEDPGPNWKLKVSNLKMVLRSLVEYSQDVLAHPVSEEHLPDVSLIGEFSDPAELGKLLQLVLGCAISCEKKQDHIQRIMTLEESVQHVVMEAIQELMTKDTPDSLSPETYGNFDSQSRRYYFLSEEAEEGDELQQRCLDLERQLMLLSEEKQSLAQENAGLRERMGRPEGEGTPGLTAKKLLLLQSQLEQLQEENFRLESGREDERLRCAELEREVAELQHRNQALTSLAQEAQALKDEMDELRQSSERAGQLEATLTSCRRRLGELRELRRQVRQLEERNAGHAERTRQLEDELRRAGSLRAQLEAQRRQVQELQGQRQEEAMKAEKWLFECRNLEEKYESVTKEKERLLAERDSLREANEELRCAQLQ

[2] = biological target: T2, MBP-tagged Hook2 N427 I150A (human) (UniProt Q96ED9); test: as above
T2 sequence: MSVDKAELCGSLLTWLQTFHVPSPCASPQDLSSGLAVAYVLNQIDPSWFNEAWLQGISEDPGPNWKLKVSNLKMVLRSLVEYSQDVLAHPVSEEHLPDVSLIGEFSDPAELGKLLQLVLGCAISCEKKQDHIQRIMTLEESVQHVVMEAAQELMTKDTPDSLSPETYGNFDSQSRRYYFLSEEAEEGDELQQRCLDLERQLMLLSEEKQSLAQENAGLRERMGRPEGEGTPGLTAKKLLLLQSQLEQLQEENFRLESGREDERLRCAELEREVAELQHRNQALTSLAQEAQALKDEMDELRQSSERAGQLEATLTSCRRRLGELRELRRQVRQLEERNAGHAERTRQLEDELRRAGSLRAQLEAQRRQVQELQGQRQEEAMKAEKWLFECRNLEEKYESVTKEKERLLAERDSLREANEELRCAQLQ

[3] = biological target: T3, MBP-tagged Hook2 N427 Q143A (human) (UniProt Q96ED9); test: as above
T3 sequence: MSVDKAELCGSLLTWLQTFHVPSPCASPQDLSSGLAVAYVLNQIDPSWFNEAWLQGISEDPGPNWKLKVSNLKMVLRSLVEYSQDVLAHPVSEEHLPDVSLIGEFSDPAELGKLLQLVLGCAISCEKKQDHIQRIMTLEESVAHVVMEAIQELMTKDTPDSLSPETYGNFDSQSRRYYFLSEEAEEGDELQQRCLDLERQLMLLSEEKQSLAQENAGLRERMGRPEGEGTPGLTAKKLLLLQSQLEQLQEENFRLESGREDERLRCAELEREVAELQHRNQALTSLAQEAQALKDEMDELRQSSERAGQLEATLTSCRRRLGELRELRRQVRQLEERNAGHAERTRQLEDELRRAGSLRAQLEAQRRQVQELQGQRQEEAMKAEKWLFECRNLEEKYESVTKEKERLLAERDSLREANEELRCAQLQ

[4] = biological target: T4, Hook2 (endogenous) (human (endogenous in HEK293T)) (UniProt Q96ED9); test: co-IP; endogenous proteins; HEK293T lysates in TAP lysis buffer (20 mM Tris-HCl pH 7.4, 150 mM NaCl, 0.5% NP-40) with antibody on protein-A/G beads, 3 h, 4°C; cells asynchronous or synchronized (G2, prometaphase, metaphase/anaphase, cytokinesis), with control or other siRNAs or Hook2 plasmids; immunoblot
T4 sequence: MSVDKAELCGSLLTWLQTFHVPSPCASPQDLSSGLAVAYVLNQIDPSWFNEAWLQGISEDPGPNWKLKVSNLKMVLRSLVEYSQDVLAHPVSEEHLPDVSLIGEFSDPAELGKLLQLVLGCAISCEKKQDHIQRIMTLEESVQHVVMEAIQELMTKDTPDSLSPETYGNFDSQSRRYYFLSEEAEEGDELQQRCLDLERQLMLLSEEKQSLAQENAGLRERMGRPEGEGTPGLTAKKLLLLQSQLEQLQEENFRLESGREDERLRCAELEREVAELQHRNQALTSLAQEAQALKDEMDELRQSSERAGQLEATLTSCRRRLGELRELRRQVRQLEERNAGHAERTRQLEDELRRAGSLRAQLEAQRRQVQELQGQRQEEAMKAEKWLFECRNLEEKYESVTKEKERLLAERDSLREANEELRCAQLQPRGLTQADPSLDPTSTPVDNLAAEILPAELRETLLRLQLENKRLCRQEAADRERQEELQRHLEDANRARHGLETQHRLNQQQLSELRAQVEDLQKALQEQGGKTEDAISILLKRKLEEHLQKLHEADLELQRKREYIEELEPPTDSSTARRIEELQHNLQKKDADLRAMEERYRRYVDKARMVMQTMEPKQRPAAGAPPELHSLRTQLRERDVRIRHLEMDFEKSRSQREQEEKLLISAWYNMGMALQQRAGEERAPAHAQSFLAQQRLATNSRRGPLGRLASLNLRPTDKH

[5] = biological target: T2, MBP-tagged Hook2 N427 I150A (human); test: pull-down; MBP-tagged Hook2 N427 (WT or mutants) on amylose beads incubated with whole-cell lysate of HEK293T cells (asynchronous, or harvested in cytokinesis for MKLP1), 4°C, 3 h, 20 mM Hepes pH 7.4, 350 mM NaCl, 1 mM DTT, 2 mM MgCl2, 0.1% Triton X-100, 2 mg/ml BSA; immunoblot; only the target purified; remark: listed apart in the source
[6] = biological target: T3, MBP-tagged Hook2 N427 Q143A (human); test: as above; remark: listed apart in the source
[7] = biological target: T5, mitotic kinesin-like protein 1 (MKLP1) (human (endogenous in HEK293T)) (UniProt Q02241); test: co-IP; endogenous proteins; HEK293T lysates in TAP lysis buffer (20 mM Tris-HCl pH 7.4, 150 mM NaCl, 0.5% NP-40) with antibody on protein-A/G beads, 3 h, 4°C; cells asynchronous or synchronized (G2, prometaphase, metaphase/anaphase, cytokinesis), with control or other siRNAs or Hook2 plasmids; immunoblot
T5 sequence: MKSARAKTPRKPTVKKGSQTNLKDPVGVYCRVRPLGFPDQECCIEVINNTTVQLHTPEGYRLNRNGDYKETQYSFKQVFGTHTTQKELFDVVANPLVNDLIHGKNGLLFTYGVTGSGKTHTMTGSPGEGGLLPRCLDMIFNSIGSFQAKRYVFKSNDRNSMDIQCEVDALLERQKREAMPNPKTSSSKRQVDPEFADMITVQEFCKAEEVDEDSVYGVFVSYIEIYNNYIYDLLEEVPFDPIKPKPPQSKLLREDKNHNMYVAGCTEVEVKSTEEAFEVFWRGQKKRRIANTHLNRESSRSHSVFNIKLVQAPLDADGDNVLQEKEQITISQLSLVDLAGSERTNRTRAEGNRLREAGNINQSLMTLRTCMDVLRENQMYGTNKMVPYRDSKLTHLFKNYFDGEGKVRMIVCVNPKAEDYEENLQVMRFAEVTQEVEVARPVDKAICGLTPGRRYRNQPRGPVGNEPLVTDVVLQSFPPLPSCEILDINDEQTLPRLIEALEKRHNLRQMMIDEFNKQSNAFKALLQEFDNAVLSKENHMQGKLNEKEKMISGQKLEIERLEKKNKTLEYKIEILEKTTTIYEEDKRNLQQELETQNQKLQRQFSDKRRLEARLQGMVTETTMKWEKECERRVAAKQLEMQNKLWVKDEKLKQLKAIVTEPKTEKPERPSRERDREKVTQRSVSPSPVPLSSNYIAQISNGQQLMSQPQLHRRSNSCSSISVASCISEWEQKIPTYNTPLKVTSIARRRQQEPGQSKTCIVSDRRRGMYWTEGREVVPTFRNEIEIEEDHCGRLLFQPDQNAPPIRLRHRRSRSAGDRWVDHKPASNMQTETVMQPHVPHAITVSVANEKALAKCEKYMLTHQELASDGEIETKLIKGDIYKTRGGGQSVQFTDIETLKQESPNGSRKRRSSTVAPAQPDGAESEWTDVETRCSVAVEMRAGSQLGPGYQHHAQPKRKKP

Q: Which results are given for “p150^glued (from UniProt Q14203-1 1-1278)”?
A: binding [1]: binds; binding [2]: no binding; binding [3]: no binding; binding [4]: binds

B1: mitotic kinesin-like protein 1 (MKLP1) (protein, UniProt Q02241 1-960)
chain: MKSARAKTPRKPTVKKGSQTNLKDPVGVYCRVRPLGFPDQECCIEVINNTTVQLHTPEGYRLNRNGDYKETQYSFKQVFGTHTTQKELFDVVANPLVNDLIHGKNGLLFTYGVTGSGKTHTMTGSPGEGGLLPRCLDMIFNSIGSFQAKRYVFKSNDRNSMDIQCEVDALLERQKREAMPNPKTSSSKRQVDPEFADMITVQEFCKAEEVDEDSVYGVFVSYIEIYNNYIYDLLEEVPFDPIKPKPPQSKLLREDKNHNMYVAGCTEVEVKSTEEAFEVFWRGQKKRRIANTHLNRESSRSHSVFNIKLVQAPLDADGDNVLQEKEQITISQLSLVDLAGSERTNRTRAEGNRLREAGNINQSLMTLRTCMDVLRENQMYGTNKMVPYRDSKLTHLFKNYFDGEGKVRMIVCVNPKAEDYEENLQVMRFAEVTQEVEVARPVDKAICGLTPGRRYRNQPRGPVGNEPLVTDVVLQSFPPLPSCEILDINDEQTLPRLIEALEKRHNLRQMMIDEFNKQSNAFKALLQEFDNAVLSKENHMQGKLNEKEKMISGQKLEIERLEKKNKTLEYKIEILEKTTTIYEEDKRNLQQELETQNQKLQRQFSDKRRLEARLQGMVTETTMKWEKECERRVAAKQLEMQNKLWVKDEKLKQLKAIVTEPKTEKPERPSRERDREKVTQRSVSPSPVPLSSNYIAQISNGQQLMSQPQLHRRSNSCSSISVASCISEWEQKIPTYNTPLKVTSIARRRQQEPGQSKTCIVSDRRRGMYWTEGREVVPTFRNEIEIEEDHCGRLLFQPDQNAPPIRLRHRRSRSAGDRWVDHKPASNMQTETVMQPHVPHAITVSVANEKALAKCEKYMLTHQELASDGEIETKLIKGDIYKTRGGGQSVQFTDIETLKQESPNGSRKRRSSTVAPAQPDGAESEWTDVETRCSVAVEMRAGSQLGPGYQHHAQPKRKKP
Q: How did the binding [5] turn out when B1 was run?
A: no binding

Q: And the binding [6]?
A: no binding

B2: Hook3 (endogenous) (protein, UniProt Q86VS8 1-718)
chain: MFSVESLERAELCESLLTWIQTFNVDAPCQTVEDLTNGVVMAQVLQKIDPAYFDENWLNRIKTEVGDNWRLKISNLKKILKGILDYNHEILGQQINDFTLPDVNLIGEHSDAAELGRMLQLILGCAVNCEQKQEYIQAIMMMEESVQHVVMTAIQELMSKESPVSAGNDAYVDLDRQLKKTTEELNEALSAKEEIAQRCHELDMQVAALQEEKSSLLAENQVLMERLNQSDSIEDPNSPAGRRHLQLQTQLEQLQEETFRLEAAKDDYRIRCEELEKEISELRQQNDELTTLADEAQSLKDEIDVLRHSSDKVSKLEGQVESYKKKLEDLGDLRRQVKLLEEKNTMYMQNTVSLEEELRKANAARSQLETYKRQVVELQNRLSEESKKADKLDFEYKRLKEKVDSLQKEKDRLRTERDSLKETIEELRCVQAQEGQLTTQGLMPLGSQESSDSLAAEIVTPEIREKLIRLQHENKMLKLNQEGSDNEKIALLQSLLDDANLRKNELETENRLVNQRLLEVQSQVEELQKSLQDQGSKAEDSVLLKKKLEEHLEKLHEANNELQKKRAIIEDLEPRFNNSSLKIEELQEALRKKEEEMKQMEERYKKYLEKAKSVIRTLDPKQNQGAAPEIQALKNQLQERDRLFHSLEKEYEKTKSQREMEEKYIVSAWYNMGMTLHKKAAEDRLASTGSGQSFLARQRQATSSRRSYPGHVQPATAR
Q: With B2 as the molecule, how does the binding [7] read?
A: no binding
